Source: the supplement of paper PMC8728848
The other results are listed elsewhere or left out.

Experiments:
Assay in all cases: glycan array binding signal (z-score within array); higher = stronger binding
Settings in all cases: glycan notation: IUPAC condensed, linker removed
[1] = molecular target: GlcNAc(b1-3)Gal(b1-4)GlcNAc(b1-3)Gal(b1-4)GlcNAc(b1-3)Gal(b1-4)GlcNAc(b1-3)Gal(b1-4)GlcNAc(b1-2)Man(a1-3)[GlcNAc(b1-3)Gal(b1-4)GlcNAc(b1-3)Gal(b1-4)GlcNAc(b1-3)Gal(b1-4)GlcNAc(b1-3)Gal(b1-4)GlcNAc(b1-2)Man(a1-6)]Man(b1-4)GlcNAc(b1-4)GlcNAc
In short: (§1)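 From the Consortium for Functional Glycomics database, 3228 arrays were curated, keeping only those whose protein sequence was available. Binding is given as a within-array Z-score averaged across arrays sharing a protein sequence and across linkers. Negative Z-scores can be read as non-binding.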

[2] = molecular target: GlcNAc(b1-3)Gal(b1-4)GlcNAc(b1-3)Gal(b1-4)GlcNAc(b1-3)Gal(b1-4)GlcNAc(b1-3)Gal(b1-4)GlcNAc(b1-2)Man(a1-3)[GlcNAc(b1-3)Gal(b1-4)GlcNAc(b1-3)Gal(b1-4)GlcNAc(b1-3)Gal(b1-4)GlcNAc(b1-3)Gal(b1-4)GlcNAc(b1-2)Man(a1-6)]Man(b1-4)GlcNAc(b1-4)[Fuc(a1-6)]GlcNAc
In short: as §1

[3] = molecular target: GlcNAc(b1-3)Gal(b1-4)GlcNAc(b1-3)Gal(b1-4)GlcNAc(b1-3)Gal(b1-4)GlcNAc(b1-3)Gal(b1-4)GlcNAc(b1-2)[GlcNAc(b1-3)Gal(b1-4)GlcNAc(b1-3)Gal(b1-4)GlcNAc(b1-3)Gal(b1-4)GlcNAc(b1-3)Gal(b1-4)GlcNAc(b1-6)]Man(a1-6)[GlcNAc(b1-3)Gal(b1-4)GlcNAc(b1-3)Gal(b1-4)GlcNAc(b1-3)Gal(b1-4)GlcNAc(b1-3)Gal(b1-4)GlcNAc(b1-2)Man(a1-3)]Man(b1-4)GlcNAc(b1-4)[Fuc(a1-6)]GlcNAc
In short: as §1

[4] = molecular target: GlcNAc(b1-3)Gal(b1-4)GlcNAc(b1-3)Gal(b1-4)GlcNAc(b1-3)GalNAc
In short: as §1

[5] = molecular target: GlcNAc(b1-3)Gal(b1-4)GlcNAc(b1-3)GalNAc
In short: as §1

[6] = molecular target: GlcNAc(b1-3)Gal(b1-4)GlcNAc(b1-3)[GlcNAc(b1-3)Gal(b1-4)GlcNAc(b1-3)]GalNAc
In short: as §1

[7] = molecular target: GlcNAc(b1-3)Gal(b1-4)GlcNAc(b1-6)[Gal(b1-3)]GalNAc
In short: as §1

[8] = molecular target: GlcNAc(b1-3)Gal(b1-4)GlcNAc(b1-6)[GlcNAc(b1-3)Gal(b1-3)]GalNAc
In short: as §1

[9] = molecular target: GlcNAc(b1-3)Gal(b1-4)GlcNAc(b1-6)[GlcNAc(b1-3)]Gal(b1-4)GlcNAc
In short: as §1

GlcNAc(b1-3)GalNAc = molecular target: GlcNAc(b1-3)GalNAc
In short: as §1

GlcNAc(b1-3)Man = molecular target: GlcNAc(b1-3)Man
In short: as §1

[10] = molecular target: GlcNAc(b1-3)[GlcNAc(b1-4)][GlcNAc(b1-6)]GlcNAc
In short: as §1

[11] = molecular target: GlcNAc(b1-3)[GlcNAc(b1-6)]Gal(b1-4)GlcNAc
In short: as §1

[12] = molecular target: GlcNAc(b1-3)[GlcNAc(b1-6)]GalNAc
In short: as §1

[13] = molecular target: GlcNAc(b1-3)[GlcNAc(b1-6)]GlcNAc(b1-4)GlcNAc
In short: as §1

[14] = molecular target: GlcNAc(b1-4)Gal(b1-4)GlcNAc
In short: as §1

GlcNAc(b1-4)GlcNAc = molecular target: GlcNAc(b1-4)GlcNAc
In short: as §1

[15] = molecular target: GlcNAc(b1-4)GlcNAc(b1-4)GlcNAc
In short: as §1

[16] = molecular target: GlcNAc(b1-4)GlcNAc(b1-4)GlcNAc(b1-4)GlcNAc(b1-4)GlcNAc
In short: as §1

[17] = molecular target: GlcNAc(b1-4)GlcNAc(b1-4)GlcNAc(b1-4)GlcNAc(b1-4)GlcNAc(b1-4)GlcNAc
In short: as §1

[18] = molecular target: GlcNAc(b1-4)[GlcNAc(b1-6)]GalNAc
In short: as §1

[19] = molecular target: GlcNAc(b1-6)Gal(b1-4)GlcNAc
In short: as §1

GlcNAc(b1-6)GalNAc = molecular target: GlcNAc(b1-6)GalNAc
In short: as §1

B1: Jacalin (Artocarpus integrifolia) (protein)
chain: MAYSSLLSLSVLALLFSISSADTRKWFLANGINQNPIGIIEAAVGVSEDLLNLNGMEAKNDEQSGISQTVIVGPWGAKVSTSSNGKAFDDGAFTGIREINLSYNKETAIGDFQVVYDLNGSPYVGQNHKSFITGFTPVKISLDFPSEYIMEVSGYTGNVSGYVVVRSLTFKTNKKTYGPYGVTSGTPFNLPIENGLIVGFKGSIGYWLDYFSMYLSL
glycan array binding signal (z-score) [1]: 4.05
glycan array binding signal (z-score) [2]: 4.23
glycan array binding signal (z-score) [3]: 5.64
glycan array binding signal (z-score) [4]: 1.03
glycan array binding signal (z-score) [5]: 0.937
glycan array binding signal (z-score) [6]: 0.857
glycan array binding signal (z-score) [7]: -0.081
glycan array binding signal (z-score) [8]: 0.065
glycan array binding signal (z-score) [9]: 0.674
glycan array binding signal (z-score) (GlcNAc(b1-3)GalNAc): 2.11
glycan array binding signal (z-score) (GlcNAc(b1-3)Man): -0.267
glycan array binding signal (z-score) [10]: -0.272
glycan array binding signal (z-score) [11]: 0.42
glycan array binding signal (z-score) [12]: 0.283
glycan array binding signal (z-score) [13]: -0.353
glycan array binding signal (z-score) [14]: 0.18
glycan array binding signal (z-score) (GlcNAc(b1-4)GlcNAc): 1.34
glycan array binding signal (z-score) [15]: 1.91
glycan array binding signal (z-score) [16]: 1.12
glycan array binding signal (z-score) [17]: 0.605
glycan array binding signal (z-score) [18]: -0.273
glycan array binding signal (z-score) [19]: -0.255
glycan array binding signal (z-score) (GlcNAc(b1-6)GalNAc): -0.137
